# According to publication PMC4336329 (PLoS ONE, 2015):
# Hit rate of the full screen: of about 310,000 compounds, about 2,200 (0.71%) showed an effect of 50% or more. The effect is printed as a negative number. The list shows a part of the results.
# Biological target: human ether-à-go-go-related gene (hERG) potassium channel (human, UniProt Q12809)
# Test: primary screen, population patch clamp on CHO cells stably expressing hERG
# Sequence of human ether-à-go-go-related gene (hERG) potassium channel (Q12809 whole entry, looked up): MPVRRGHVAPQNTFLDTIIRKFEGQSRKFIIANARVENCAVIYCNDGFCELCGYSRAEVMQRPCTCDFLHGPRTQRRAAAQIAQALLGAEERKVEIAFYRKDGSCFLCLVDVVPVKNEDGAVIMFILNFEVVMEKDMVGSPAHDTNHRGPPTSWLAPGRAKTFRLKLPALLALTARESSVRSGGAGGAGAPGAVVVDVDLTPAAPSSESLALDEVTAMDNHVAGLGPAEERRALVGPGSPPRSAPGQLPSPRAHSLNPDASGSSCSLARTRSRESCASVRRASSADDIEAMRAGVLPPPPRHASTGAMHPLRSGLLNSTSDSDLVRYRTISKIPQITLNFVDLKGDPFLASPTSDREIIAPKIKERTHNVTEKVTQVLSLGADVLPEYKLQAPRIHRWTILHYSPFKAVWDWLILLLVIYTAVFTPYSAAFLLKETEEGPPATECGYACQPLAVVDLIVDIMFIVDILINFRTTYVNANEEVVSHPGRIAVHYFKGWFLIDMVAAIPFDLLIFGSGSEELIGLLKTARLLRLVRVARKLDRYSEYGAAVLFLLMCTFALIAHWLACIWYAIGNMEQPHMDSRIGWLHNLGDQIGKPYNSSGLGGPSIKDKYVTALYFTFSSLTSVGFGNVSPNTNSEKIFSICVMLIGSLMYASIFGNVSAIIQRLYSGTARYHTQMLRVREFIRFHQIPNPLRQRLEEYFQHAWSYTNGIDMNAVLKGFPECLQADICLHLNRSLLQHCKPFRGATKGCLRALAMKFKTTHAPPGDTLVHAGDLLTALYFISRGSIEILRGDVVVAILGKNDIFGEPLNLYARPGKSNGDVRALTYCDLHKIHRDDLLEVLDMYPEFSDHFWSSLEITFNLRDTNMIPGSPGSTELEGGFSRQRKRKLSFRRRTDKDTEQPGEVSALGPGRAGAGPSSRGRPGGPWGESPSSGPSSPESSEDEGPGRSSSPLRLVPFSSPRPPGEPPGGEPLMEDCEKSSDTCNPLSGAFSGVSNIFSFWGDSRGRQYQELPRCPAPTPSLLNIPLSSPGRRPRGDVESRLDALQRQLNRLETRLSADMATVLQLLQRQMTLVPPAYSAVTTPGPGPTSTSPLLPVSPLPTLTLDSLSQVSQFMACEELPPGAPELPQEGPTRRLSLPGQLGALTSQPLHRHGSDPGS
row,SMILES,"hERG current change (%, negative = inhibition) at 1uM [%]"
1,CC(=O)Nc1ccccc1-c1nc2ccccc2nc1OCC(=O)c1ccc(Br)cc1,5.63
2,COc1ccc(NC(=O)[C@H](C)NC(=O)C2CCN(S(=O)(=O)c3ccc(C)cc3)CC2)cc1OC,8.39
3,Cn1c(C(=O)NCCCN2CCCC2=O)cc2c(=O)n(C)c3ccccc3c21,-0.935
4,CCN1CCN(CCCNC(=O)c2ccc3c(c2)N(Cc2ccc(C)cc2)CCS3)CC1,8.86
5,CN1CCN(S(=O)(=O)c2ccc(NC(=S)NC(=O)C3CCCCC3)cc2)CC1,6.49
6,COc1ccc(CCNC(=O)C2CC(c3cccc([N+](=O)[O-])c3)=NO2)cc1 (stereo not drawn),1.61
7,CCN(CC)C(=O)CSc1nnc(CCCCCNC(=O)OC(C)(C)C)o1,-6.38
8,O=C(Cc1nnc(NC(=O)c2ccccc2)s1)N/N=C/c1ccc(O)cc1,11.7
9,Cc1cc(C)n2[nH]c(=O)c(N=Nc3ccccc3)c2n1,15.4
10,O=S(=O)(c1ccc(NC(=S)NCc2ccco2)cc1)N1CCCC1,18.4
11,COc1ccc(CCn2c(=N)c(C(=O)NC3CCCCC3)cc3c(=O)n4ccccc4nc32)cc1,-84.1
12,CC(C)C[C@H](N)c1cn([C@@H](CCCCN)C(=O)N2CCNCC2)nn1.Cl,7.39
13,COC(=O)c1ccccc1NC(=O)Nc1cccs1,18.1
14,CC(C(=O)Nc1nc(-c2ccc(F)c(F)c2)cs1)N1C(=O)C2CC=CCC2C1=O (stereo not drawn),-3.18
15,CCCCn1c(N)c(N(CCOC)C(=O)c2cc(S(=O)(=O)N3CCCCC3)ccc2Cl)c(=O)[nH]c1=O,-0.133
16,Cn1ncc2c(Nc3cc(Cl)cc(Cl)c3)ncnc21,8.63
17,COC(=O)Cn1c(=O)c2c(nc3n2CCCN3CCc2ccccc2)n(C)c1=O,-6.51
18,COC(=O)CCc1ccc(OCC(O)CNC(C)C)cc1.Cl (stereo not drawn),0.474
19,COc1ccc(/C=C/C(=O)Nc2ccc(OC)nc2)cc1,0.889
20,CNCC/C=C1/c2ccccc2CSc2ccccc21.Cl,-0.0994
21,CCOc1ccccc1N1CN(Cc2ccccc2)CNC1=S,6.78
22,Cn1cnnc1SCC(=O)Nc1cccc(C(=O)O)c1,13.2
23,CCN(C(=O)CSc1nnc(-c2ccncc2)n1-c1ccccc1)C1CCS(=O)(=O)C1 (stereo not drawn),6.32
24,Cc1ccnc(NS(=O)(=O)c2ccc(NC(=O)CSc3nc(-c4ccccc4)cc(=O)[nH]3)cc2)n1,4.68
25,Cc1ccc(/C(O)=C2/C(=O)C(=O)OC2c2ccc(Cl)cc2)cc1 (stereo not drawn),16.5
26,Cc1ccccc1NS(=O)(=O)c1ccc(C(=O)N2CCN(S(=O)(=O)c3ccccc3)CC2)cc1,14.7
27,COC(=O)c1c(NC(=O)C2COc3ccccc3O2)sc2c1CCN(Cc1ccccc1)C2.Cl (stereo not drawn),-0.364

row,SMILES,"hERG current change (%, negative = inhibition) at 1uM [%]"
1,Cc1noc(C)c1C(=O)OCC(=O)NCCc1ccc(Cl)cc1,11.9
2,O=C(CCNS(=O)(=O)c1ccccc1)OCC(=O)c1ccc[nH]1,12.6
3,CCOC(=O)C(CC)Sc1ncnc2c1nnn2-c1ccc(F)cc1 (stereo not drawn),11.4
4,Cc1nnc(-c2ccc(N3CCCCCC3)c([N+](=O)[O-])c2)o1,12.2
5,CCOc1ccc(NC(=O)CN(C)C(=O)C2CCN(C(=O)c3ccc(Cl)cc3)CC2)cc1OCC,-0.0053
6,CC(=C/c1ccccc1)/C=N/n1c(-c2ccco2)n[nH]c1=S,11.9
7,CCOc1cc(CNn2cnnc2)cc(Br)c1OCC(=O)NC1CCCCC1,1.98
8,O=C(Cn1cnnn1)NCc1ccccc1,18.2
9,O=C(c1ccc(Br)o1)N1CCCc2ccccc21,5.26
10,C#Cc1ccc([C@@H]2C=C(C(=O)N3CCOCC3)O[C@H](OCC)[C@H]2CCCO)cc1,7.15
11,COc1c(F)c(F)cc2c(=O)c(C(=O)O)cn(C3CC3)c12,2.58
12,COc1ccc(-n2nnnc2SCC(=O)N2CCN(C(=O)c3ccco3)CC2)cc1OC,11
13,Cc1ccc(Nc2nc(N)nc(CN3CCN(Cc4ccc5c(c4)OCO5)CC3)n2)cc1Cl,-34.6
14,Cc1cccc2nc(CSc3ccccc3C(=O)O)cn12,15.7
15,Cc1cc(C)cc(NC(=O)C(OC(=O)c2ccc(NC(=O)CC#N)cc2)c2ccccc2)c1 (stereo not drawn),9.31
16,COc1ccc(CN2C(=O)c3ccccc3C2=O)cc1C(=O)N(C)CC(=O)Nc1c(C)cccc1C,7.18
17,O=C(CSc1nn(-c2ccc(F)cc2)c(=S)s1)NC(=O)NCc1ccco1,12.7
18,COc1cccc(C2C([N+](=O)[O-])=C(N)Oc3cc(C)oc(=O)c32)c1 (stereo not drawn),10.3
19,COc1ccc(C(=O)NNC2=CC(=O)CC(C)(C)C2)cc1,9.33
20,O=C(CN1C(=O)COc2ccccc21)NCCN1CCCC1,12.7
21,O=C(NCCc1ccccc1)c1cccnc1N1CCCCCC1,-2.68
22,CCCC(=O)Nc1ccc2c(c1)Cc1ccccc1-2,10.9
23,COc1ccc(C2C(C(=O)N3CCN(C)CC3)c3ccccc3C(=O)N2C2CCCCC2)cc1 (stereo not drawn),14.4
24,COc1ccc2nc(N(CCN(C)C)C(=O)/C=C/c3cccs3)sc2c1.Cl,5.55
25,COc1ccc(/C=N\NC(=O)COc2ccccc2)c(C(=O)O)c1OC,13.2
26,C=CCNC(=O)c1onc(CSc2ccc(F)cc2)c1C(=O)O,10.3
27,Cc1ccc(S(=O)(=O)N2CCC(C(=O)Nc3nnc(C)s3)CC2)cc1,9.1
